Where “and” joins values, the source holds several entries; their conditions need not be identical. Identical values can stand only once. ± gives the standard deviation of the averaged measurements. Over roughly 5,300 compounds, “PER2::LUC luminescence relative to vehicle control” has its median near 0.96; the highest 2% begin near 1.3. Some of the results follow.
System: mPer2Luc MEF
Test: PER2::LUC luminescence relative to vehicle control (fold of vehicle); higher = higher PER2::LUC reporter signal
Details: 10 µM
Method in brief: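 Mouse embryonic fibroblasts carrying the mPer2Luc reporter were seeded at ~3000 cells per well in 384-well plates, 48 h before compounds from commercial libraries were added at 10 μM. Cells were grown in DMEM with 10% FBS at 37 °C and 5% CO2. Luminescence was read with the ONE-Glo luciferase assay system 24 h and 30 h after treatment, followed by an alamarBlue viability assay. The value is PER2::LUC luminescence as fold of vehicle control.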

SMILES | PER2::LUC luminescence (time after treatment 24 h) | PER2::LUC luminescence (time after treatment 30 h)
Oc1cc2c(cc1O)C1c3ccc(O)c(O)c3OCC1(O)C2 (stereo not given) | 0.873 | 0.854
NC1(C(=O)O)CC1 | 0.963 | 0.924
COc1ccc(-c2cc(=O)c3c(O)c(OC)c(OC)c(OC)c3o2)cc1 | 1.03 | 1.16
CCN(CC)C(=O)c1ccc(O)c(OC)c1 | 1.06 and 0.997 | 0.881 and 0.818
CC(=O)[C@@]1(O)CC[C@H]2[C@@H]3CCC4=CC(=O)CC[C@]4(C)[C@H]3CC[C@@]21C | 0.497 | 0.559
Nc1nc(O)c2[nH]nnc2n1 | 0.306 | 0.264
Nc1nccc(Oc2ccc(NC(=O)c3c[nH]cc(-c4ccc(F)cc4)c3=O)cc2F)c1Cl | 0.834 ± 0.27 | 0.643 ± 0.26
Cc1nc2c(-c3cnc(N)nc3)nc(N3CCOCC3)nc2n1C(C)C | 0.117 | 0.125
CN(C)CCOC(c1ccccc1)c1ccccc1.Cn1c(=O)c2[nH]c(Cl)nc2n(C)c1=O | 0.905 | 0.804
CN(CCCN1c2ccccc2CCc2ccccc21)CC(=O)c1ccc(Cl)cc1 | 0.756 | 0.935
CCS(=O)(=O)N1CC(CC#N)(n2cc(-c3ncnc4[nH]ccc34)cn2)C1 | 1.09 and 0.875 | 1.24 and 1.03
CCN(CC)c1ccc2cc(C(=O)O)c(=O)oc2c1 | 1.06 | 1.04
CSC(=N)N | 1.05 | 0.748
COc1cc(C)c(C(=O)Oc2cc(C)c(C(=O)O)c(O)c2C)c(OC)c1C | 0.801 | 0.798
Cc1cc(C)c(S(=O)(=O)N(CCc2cccc(Br)c2)Cc2ccc(-c3cccc(S(C)(=O)=O)c3)cc2)c(C)c1 | 0.972 | 0.814
O=C1NCC2(CCN(CCc3ccccc3)CC2)O1 | 0.308 | 0.544
Clc1ccc2c(c1)CCc1cccnc1C2=C1CCNCC1 | 0.761 and 0.708 and 0.621 | 0.76 and 0.721 and 0.57
Cl.N[C@@H](CCC(=O)O)C(=O)O | 0.933 | 0.703
COc1ccc([C@@H]2CC(=O)c3c(O)cc(OC4O[C@H](CO[C@H]5O[C@@H](C)[C@@H](O)[C@@H](O)[C@H]5O)[C@H](O)[C@H](O)[C@H]4O)cc3O2)cc1O (stereo not given in full) | 1.02 | 1.03
CC(=O)O[C@@H]1C[C@H]2C(C)(C)C(=O)C=C[C@]2(C)[C@H]2CC[C@@]3(C)[C@H](c4ccoc4)OC(=O)[C@H]4O[C@]43[C@@]21C | 0.515 | 0.932
O=C(O)CCc1ccc(NCc2cccc(Oc3ccccc3)c2)cc1 | 1.24 | 1.29
Cc1[nH]cnc1CN1CCc2c(c3ccccc3n2C)C1=O | 0.875 | 0.768
O=C1NC(=O)c2cc(Nc3ccccc3)c(Nc3ccccc3)cc21 | 1 | 0.781
CN(C)Cc1nc(-c2cn(C)c3ccccc23)no1 | 0.847 | 0.949
CC[C@H](C)[C@H]1O[C@]2(C=C[C@@H]1C)C[C@@H]1C[C@@H](C/C=C(\C)[C@@H](O[C@H]3C[C@H](OC)[C@@H](O[C@H]4C[C@H](OC)[C@@H](O)[C@H](C)O4)[C@H](C)O3)[C@@H](C)/C=C/C=C3\CO[C@@H]4[C@H](OC)C(C)=C[C@@H](C(=O)O1)[C@]34O)O2 | 0.767 | 0.843

— the supplement of paper PMC9334596
